Source: PubChem BioAssay AID463173 (ICCB-Longwood Screening Facility, Harvard Medical School, 2010)
Out of some 52,000 compounds screened, about 4,300 (8.3%) were called active. Cut-off read from the data, not from the text of the source: active = survival mostly below about 52% (no sharp cut-off); inactive = mostly above about 56%. This is one part of the list.

These molecules were tested on DeltatarO mutant (assay: S. aureus survival, RN4220 and DeltatarO strains – OD600, teichoic acid synthesis inhibitors, primary screen (AID 463173)). Details: S. aureus RN4220 wild type/DeltatarO growth, OD600, 18 h, stronger effect = lower value, screened at 18.75 µg/mL (by protocol).

| Structure (SMILES) | survival |
| --- | --- |
| CC(=O)Nc1ccc(C(=O)N2CCc3ccccc3C2)cc1 | inactive: 99% |
| CC1CCN(C(=O)c2ccc(Br)cc2)CC1 | inactive: 110% |
| O=C(CSc1nc(=O)[nH]c2c1CCC2)NCc1ccc(F)cc1 | inactive: 74% |
| COc1ccc(Cl)cc1S(=O)(=O)N1CCN(C(=O)c2cc(-c3ccc(Br)cc3)n[nH]2)CC1 | active: 47% |
| Cc1ccc(-n2ncc3c(N4CCN(Cc5ccccc5)CC4)ncnc32)cc1 | inactive: 126% |
| Cc1cccc(C(=O)Nc2ccc(S(=O)(=O)N3CCCCC3c3cccnc3)cc2)c1 (stereo not drawn) | inactive: 87% |
| CCOc1ccccc1CNc1nc2nc(C)c(CC(=O)OC)c(=O)n2[nH]1 | inactive: 84% |
| CC(=O)N1NC(=Nc2ccccc2)SC1(C)C | inactive: 64% |
| Cc1cc2oc(C(=O)Nc3c(C)n(C)n(-c4ccccc4)c3=O)cc(=O)c2cc1C | inactive: 78% |
| COc1ccc(-c2cc(C(=O)Nc3c(C)n(C)n(-c4ccccc4)c3=O)no2)cc1 | active: 46% |
| COC(=O)C(CCSC)NC(=O)c1cc2c(n(-c3ccccc3)c1=O)CC(C)(C)CC2=O (stereo not drawn) | inactive: 77% |
| CN1C(=O)c2ccccc2Sc2ccc(NC(=O)c3ccc(C#N)cc3)cc21 | inactive: 88% |
| O=C(NCCCc1nc2ccccc2n1Cc1ccccc1F)c1ccco1 | inactive: 63% |
| CCOC(=O)Cn1c(=O)n(-c2ccc(Cl)cc2)c2nc(-c3ccc(Cl)cc3)nc(C(N)=O)c21 | inactive: 62% |
| Cc1nn(C(C)(C)C)c(OC(=O)c2c(F)cccc2F)c1Sc1ccccc1 | inactive: 127% |
| COc1ccc(NC(=O)CN(c2ccc(C)cc2)S(=O)(=O)c2cccs2)cc1 | inactive: 87% |
| COc1cc(CNc2ccc3[nH]c(=O)[nH]c3c2)cc(Cl)c1OCc1ccc(F)cc1 | inactive: 76% |
| O=c1[nH]c2ccc(S(=O)(=O)Nc3ccccc3)cc2o1 | inactive: 77% |
| O=C(CCCn1c(=O)c2ccccc2n(Cc2cccc(F)c2)c1=O)NCc1ccccc1Cl | inactive: 74% |
| O=C(Nc1ccc(S(=O)(=O)N(Cc2ccccc2)c2ccccc2)cc1)c1ccc(F)cc1 | inactive: 70% |
| O=C(CCc1ccccc1)N1CCc2c([nH]c3ccccc23)C1c1ccc(F)cc1 (stereo not drawn) | inactive: 82% |
| CCCCNC(=O)c1sc2ncccc2c1-n1cccc1 | inactive: 55% |

| Structure (SMILES) | survival |
| --- | --- |
| Nc1c(S(=O)(=O)Cc2ccccc2)sc2nc3c(cc12)CCCC3 | inactive: 49% |
| CCOc1ccc(Nc2c3c(nc4nncn24)CCC3)cc1 | inactive: 64% |
| O=C(NCCc1ccccc1)c1cc(-c2ccc(Cl)c(Cl)c2)on1 | inactive: 57% |
| Cc1c(CC(=O)NCc2ccccc2Cl)c(=O)oc2cc(O)ccc12 | active: 44% |
| O=C(O)C1C2C=CC3(CN(Cc4cccc(Cl)c4Cl)C(=O)C13)O2 (stereo not drawn) | inactive: 101% |
| COc1ccc(C(=O)OCc2cc(=O)n3nc(C4CC4)sc3n2)cc1OC | inactive: 91% |
| Cc1ccc2c(=O)cc(C(=O)Nc3nc4ccc(Cl)cc4s3)oc2c1 | active: 25% |
| Cc1cccc(C(=O)Nc2ccccc2OCc2cc(=O)n3c(C)csc3n2)c1 | inactive: 104% |
| O=C(Nc1ccc(C(=O)OCc2cc(=O)n3c4c(sc3n2)CCCC4)cc1)c1cccc(F)c1 | inactive: 91% |
| COc1ccc(CCNc2nc3c(c(=O)n(C)c(=O)n3C)n2Cc2ccccc2Cl)cc1OC | inactive: 75% |
| Cc1csc2nc(-c3cccc(NC(=O)c4c(F)cccc4F)c3)cn12 | inactive: 128% |
| O=C(Cn1cc(S(=O)(=O)Cc2ccccc2F)c2ccccc21)NCc1ccccc1 | inactive: 87% |
| COc1ccc(CCNC(=O)CCn2c(=O)c3ccccc3n(Cc3ccccc3C)c2=O)cc1OC | inactive: 86% |
| CCC1CCCCN1C(=O)CSc1nnc(-c2cccnc2)n1-c1ccc(OC)cc1 (stereo not drawn) | inactive: 105% |
| CN(C)c1ccc(/C=N/c2nc3ccccc3o2)cc1 | inactive: 85% |
| CN(C)S(=O)(=O)c1ccc(S(=O)(=O)N(Cc2ccccc2F)C2CC2)cc1 | inactive: 91% |
| CCOc1ccc(-c2nnc(SCC(=O)Nc3cccc(Cl)c3C)o2)cc1 | inactive: 57% |
| CC(C)Oc1ccc(CNS(=O)(=O)c2ccc(-c3cc(C(F)(F)F)on3)s2)cc1 | inactive: 77% |
| Cc1ccc(NC(=O)CCn2cnc3onc(-c4ccc(F)cc4)c3c2=O)c(Br)c1 | inactive: 102% |
| Cc1ccc2oc(C(=O)Nc3ccc(S(=O)(=O)Nc4nc(C)cc(C)n4)cc3)cc(=O)c2c1 | inactive: 99% |
| Cc1ccc2nc(CN3CCN(S(=O)(=O)c4ccc(F)cc4)CC3)oc2c1 | inactive: 72% |
| Cc1ccc(-c2nc3c(c(SCC(=O)Nc4cccc(C(=O)O)c4)n2)Cc2cccc(C)c2O3)cc1 | inactive: 67% |

| Structure (SMILES) | survival |
| --- | --- |
| CCN(CC)CCNC(=O)c1ccc2c(=O)n3nc(Nc4ccccc4)sc3nc2c1 | inactive: 101% |
| CC1=C(C(=O)Nc2cccc(C(F)(F)F)c2)C2(CCN(C(C)C)CC2)OC1=O | inactive: 84% |
| Cc1cc2c(cc1S(=O)(=O)Nc1cccc(Cl)c1C)OCCN2C | inactive: 67% |
| COc1ccc(-c2nc3ccccc3o2)cc1NC(=O)c1ccc(-c2cccc(Cl)c2C)o1 | inactive: 58% |
| Cc1c(-c2nc(-c3ccc4c(c3)OCO4)no2)nnn1-c1cccc(C(F)(F)F)c1 | inactive: 83% |
| Cc1ccc(CNC(=O)C2CCCN(Cc3nc(-c4cccc(C)c4)oc3C)C2)cc1 (stereo not drawn) | inactive: 41% |
| COc1cccc(NC(=O)C2CCN(c3nnc(-n4c(C)ccc4C)s3)CC2)c1 | inactive: 86% |
| COCCCNC(=O)CN1C(=O)CSc2ccc(S(=O)(=O)N3CCOCC3)cc21 | inactive: 122% |
| CCn1cc2nc(SCc3ccc(F)cc3)n(Cc3ccc(Cl)cc3)c(=O)c2n1 | inactive: 95% |
| CCCS(=O)(=O)N1CC(=O)N(c2ccc(Cl)cc2)C(C)(C(=O)NC2CCCC2)C1 (stereo not drawn) | inactive: 91% |
| CC(=O)Nc1ccc(Nc2nnc(-c3ccc(C)c(S(N)(=O)=O)c3)c3ccccc23)cc1 | inactive: 186% |
| Cc1cc(C)cc(N(CC(=O)NCc2ccco2)C(=O)c2snc(C(N)=O)c2N)c1 | inactive: 93% |
| COc1ccc2c(c1)CC(C(=O)NCCN1CCN(c3cccc(C)c3C)CC1)CO2 (stereo not drawn) | inactive: 76% |
| COc1ccc2c(c1)c1c(c(=O)n(Cc3ccccc3)c(=O)n1CC(=O)Nc1ccc(C)cc1C)n2C | active: -2% |
| CC(C)CCNC(=O)Nc1cc(C(=O)NCc2cccc(F)c2)ccc1N1CCCC1 | inactive: 76% |
| O=C(C1CCN(S(=O)(=O)Cc2ccccc2)CC1)N1CCN(c2cccc(Cl)c2)CC1 | inactive: 79% |
| O=C(Nc1nnc(S(=O)(=O)N2CCCCCC2)s1)c1ccccc1Br | active: 43% |
| Cn1c(=O)[nH]c(=O)c2c1nc1n2CCCN1c1ccccc1 | inactive: 77% |
| CSc1cccc(NC(=O)C2CCN(S(=O)(=O)c3ccc4[nH]c5c(c4c3)CCCCC5)CC2)c1 | inactive: 89% |
| Cc1ccc(NC(=O)C2CCCN(S(=O)(=O)c3c(C)n[nH]c3C)C2)cc1C (stereo not drawn) | inactive: 129% |
| CCOC(=O)c1ccc(CN(Cc2ccc(C)cc2)S(=O)(=O)c2ccc(NC(C)=O)cc2)cc1 | inactive: 73% |
| Cc1[nH]c2ccc(Cl)cc2c(=O)c1CN1CCN(C)CC1 | inactive: 95% |

| Structure (SMILES) | survival |
| --- | --- |
| CCOC(=O)/C(C#N)=C/N1CCCc2ccccc21 | inactive: 96% |
| Cc1ccc(OC(=O)CCC(=O)N2CCc3ccccc32)cc1 | inactive: 111% |
| Cc1ccc(NC(=O)c2oc3ccc(S(=O)(=O)N4CCC5(CC4)OCCO5)cc3c2C)c(C)c1 | inactive: 100% |
| COCCn1c(SCC(=O)Nc2ccc(C(F)(F)F)cc2)nc2c([nH]c3ccccc32)c1=O | inactive: 85% |
| O=C(NC(=S)NC1CCSC1=O)c1ccco1 (stereo not drawn) | inactive: 82% |
| O=C(Nc1ccc(S(=O)(=O)N(Cc2ccccc2)c2ccccc2)cc1)c1ccc([N+](=O)[O-])cc1 | inactive: 71% |
| O=C(NCc1ccc2c(c1)CCN2C(=O)c1ccccc1)c1ccco1 | inactive: 80% |
| COc1ccc(CCN2C(=O)C3CC=C(C)CC3C2=O)cc1OC (stereo not drawn) | inactive: 112% |
| COc1cccc(N2CCN(C(=O)c3cc4c(=O)n(Cc5ccco5)ccc4nc3C)CC2)c1 | inactive: 89% |
| O=C(NCc1ccccc1Cl)c1ccc(NC(=O)N2CCSc3ncccc32)cc1 | inactive: 80% |
| CCC1=C(c2ccc(C)cc2)S(=O)(=O)N=C1N1CCC(C(=O)NCc2ccccc2Cl)CC1 | inactive: 77% |
| CCOC(=O)c1cc(S(=O)(=O)N2CCN(c3ccc(F)cc3)CC2)[nH]n1 | inactive: 73% |
| CCCN(CCC)CCNC(=O)C1CCCN(S(=O)(=O)c2cccc3nsnc23)C1 (stereo not drawn) | inactive: 96% |
| CCCCCOC(=O)c1ccc(OC(=O)c2sc3ncn(Cc4cccc(F)c4)c(=O)c3c2C)cc1 | inactive: 74% |
| Cc1ccc(C)c(N2CCN(CCCNC(=O)c3nnc(Cc4ccc(F)cc4Cl)o3)CC2)c1 | inactive: 54% |
| CCn1c(CCNC(=O)C2CCCO2)nnc1SC (stereo not drawn) | inactive: 104% |
| NCCNC(=O)c1c(O)c2cccc3c2n(c1=O)CCC3 | inactive: 101% |
| Cc1ccccc1N(CC(=O)NC1CCCC1)C(=O)c1csnn1 | inactive: 93% |
| Cc1ccc(C)c(OC(=O)CSc2nnc(-c3ccc4c(c3)OCO4)o2)c1 | inactive: 84% |
| COC(=O)c1ccc(Cn2c(SCC(=O)N(C)c3ccccc3)nc3ccccc32)cc1 | inactive: 60% |
| CCOc1cc(C(=O)Nc2ccc(S(=O)(=O)Nc3cc(OC)nc(OC)n3)cc2)cc(OCC)c1OCC | inactive: 67% |
| CCOc1cc2[nH]c(=O)n(CCCC(=O)N3CCN(c4cccc(Cl)c4)CC3)c(=O)c2cc1OCC | inactive: 81% |
